# From the supplement of paper PMC8728848
# This is one part of the list.
# B1: AidA (Burkholderia cenocepacia) (protein)
# chain: MSRVTDVLVSFDTETILKKYPNPSKNPAAPTLIDWRYVYMVTNQDNVISGQAGGELDLKAQVGDLIRWRETSLSLGFENQVVFYKFIGNVGNDLISTPTPRVAEASIPVPNTSKPEVPTCQKVANYYWSSECLKVGRVTYHFQFQIIDRNCQSQGCFSWDPFISIHN
# Columns and labels:
# Assay in all cases: glycan array binding signal (z-score within array); higher = stronger binding
# Details in all cases: glycan notation: IUPAC condensed, linker removed
# [1] = molecular target: GlcNAc(b1-3)Gal(b1-4)GlcNAc(b1-3)Gal(b1-4)GlcNAc(b1-3)GalNAc
# Summary of the method: (§1)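 Glycan array data were curated from 3228 arrays in the Consortium for Functional Glycomics database and kept only where the protein sequence was available. Glycan names were converted to IUPAC-condensed notation, and columns mapping to the same glycan were averaged. The binding signal is a within-array Z-score, averaged across arrays of the same protein sequence at different concentrations or buffers and across linkers. Negative Z-scores can be read as non-binding.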
# [2] = molecular target: GlcNAc(b1-3)Gal(b1-4)GlcNAc(b1-3)GalNAc
# Summary of the method: as §1
# [3] = molecular target: GlcNAc(b1-3)Gal(b1-4)GlcNAc(b1-3)[GlcNAc(b1-3)Gal(b1-4)GlcNAc(b1-3)]GalNAc
# Summary of the method: as §1
# [4] = molecular target: GlcNAc(b1-3)Gal(b1-4)GlcNAc(b1-6)[Gal(b1-3)]GalNAc
# Summary of the method: as §1
# [5] = molecular target: GlcNAc(b1-3)Gal(b1-4)GlcNAc(b1-6)[GlcNAc(b1-3)Gal(b1-3)]GalNAc
# Summary of the method: as §1
# [6] = molecular target: GlcNAc(b1-3)Gal(b1-4)GlcNAc(b1-6)[GlcNAc(b1-3)]Gal(b1-4)GlcNAc
# Summary of the method: as §1
# GlcNAc(b1-3)GalNAc = molecular target: GlcNAc(b1-3)GalNAc
# Summary of the method: as §1
# GlcNAc(b1-3)Man = molecular target: GlcNAc(b1-3)Man
# Summary of the method: as §1
# [7] = molecular target: GlcNAc(b1-3)[GlcNAc(b1-4)][GlcNAc(b1-6)]GlcNAc
# Summary of the method: as §1
# [8] = molecular target: GlcNAc(b1-3)[GlcNAc(b1-6)]Gal(b1-4)GlcNAc
# Summary of the method: as §1
# [9] = molecular target: GlcNAc(b1-3)[GlcNAc(b1-6)]GalNAc
# Summary of the method: as §1
# [10] = molecular target: GlcNAc(b1-4)Gal(b1-4)GlcNAc
# Summary of the method: as §1
# GlcNAc(b1-4)GlcNAc = molecular target: GlcNAc(b1-4)GlcNAc
# Summary of the method: as §1
# [11] = molecular target: GlcNAc(b1-4)GlcNAc(b1-4)GlcNAc
# Summary of the method: as §1
# [12] = molecular target: GlcNAc(b1-4)GlcNAc(b1-4)GlcNAc(b1-4)GlcNAc(b1-4)GlcNAc
# Summary of the method: as §1
# [13] = molecular target: GlcNAc(b1-4)GlcNAc(b1-4)GlcNAc(b1-4)GlcNAc(b1-4)GlcNAc(b1-4)GlcNAc
# Summary of the method: as §1
# [14] = molecular target: GlcNAc(b1-4)[GlcNAc(b1-6)]GalNAc
# Summary of the method: as §1
# [15] = molecular target: GlcNAc(b1-6)Gal(b1-4)GlcNAc
# Summary of the method: as §1
# GlcNAc(b1-6)GalNAc = molecular target: GlcNAc(b1-6)GalNAc
# Summary of the method: as §1
# [16] = molecular target: GlcNAc6S(b1-3)Gal(b1-4)GlcNAc
# Summary of the method: as §1
# Kdn(a2-3)Gal(b1-3)GalNAc = molecular target: Kdn(a2-3)Gal(b1-3)GalNAc
# Summary of the method: as §1
# Kdn(a2-3)Gal(b1-3)GlcNAc = molecular target: Kdn(a2-3)Gal(b1-3)GlcNAc
# Summary of the method: as §1
# Kdn(a2-3)Gal(b1-4)Glc = molecular target: Kdn(a2-3)Gal(b1-4)Glc
# Summary of the method: as §1
# Kdn(a2-3)Gal(b1-4)GlcNAc = molecular target: Kdn(a2-3)Gal(b1-4)GlcNAc
# Summary of the method: as §1
# [17] = molecular target: Kdn(a2-3)Gal(b1-4)[Fuc(a1-3)]GlcNAc
# Summary of the method: as §1
# Kdn(a2-6)Gal(b1-4)GlcNAc = molecular target: Kdn(a2-6)Gal(b1-4)GlcNAc
# Summary of the method: as §1
# [18] = molecular target: Man(a1-2)Man(a1-2)Man(a1-3)Man
# Summary of the method: as §1
# [19] = molecular target: Man(a1-2)Man(a1-2)Man(a1-6)[Man(a1-3)]Man
# Summary of the method: as §1
# Man(a1-2)Man(a1-3)Man = molecular target: Man(a1-2)Man(a1-3)Man
# Summary of the method: as §1
# [20] = molecular target: Man(a1-2)Man(a1-3)[Man(a1-2)Man(a1-6)]Man
# Summary of the method: as §1
# [21] = molecular target: Man(a1-2)Man(a1-3)[Man(a1-2)Man(a1-6)]Man(a1-6)[Man(a1-2)Man(a1-2)Man(a1-3)]Man
# Summary of the method: as §1
# [22] = molecular target: Man(a1-2)Man(a1-3)[Man(a1-2)Man(a1-6)]Man(a1-6)[Man(a1-2)Man(a1-2)Man(a1-3)]Man(b1-4)GlcNAc(b1-4)GlcNAc
# Summary of the method: as §1
# [23] = molecular target: Man(a1-2)Man(a1-3)[Man(a1-6)]Man(a1-6)[Man(a1-2)Man(a1-3)]Man(b1-4)GlcNAc(b1-4)GlcNAc
# Summary of the method: as §1
# [24] = molecular target: Man(a1-2)Man(a1-6)[Man(a1-3)]Man(a1-6)[Man(a1-2)Man(a1-2)Man(a1-3)]Man
# Summary of the method: as §1
# [25] = molecular target: Man(a1-2)Man(a1-6)[Man(a1-3)]Man(a1-6)[Man(a1-2)Man(a1-2)Man(a1-3)]Man(b1-4)GlcNAc(b1-4)GlcNAc
# Summary of the method: as §1
# Man(a1-3)[Man(a1-6)]Man = molecular target: Man(a1-3)[Man(a1-6)]Man
# Summary of the method: as §1
# [26] = molecular target: Man(a1-3)[Man(a1-6)]Man(a1-6)[Man(a1-2)Man(a1-3)]Man(b1-4)GlcNAc(b1-4)GlcNAc
# Summary of the method: as §1
# [27] = molecular target: Man(a1-3)[Man(a1-6)]Man(a1-6)[Man(a1-3)]Man
# Summary of the method: as §1
# [28] = molecular target: Man(a1-3)[Man(a1-6)]Man(a1-6)[Man(a1-3)]Man(b1-4)GlcNAc(b1-4)GlcNAc
# Summary of the method: as §1
# [29] = molecular target: Man(a1-3)[Man(a1-6)]Man(b1-4)GlcNAc(b1-4)GlcNAc
# Summary of the method: as §1
# [30] = molecular target: Man(a1-3)[Man(a1-6)]Man(b1-4)GlcNAc(b1-4)[Fuc(a1-6)]GlcNAc
# Summary of the method: as §1
# Man(a1-6)Man = molecular target: Man(a1-6)Man
# Summary of the method: as §1
# Man(b1-4)GlcNAc = molecular target: Man(b1-4)GlcNAc
# Summary of the method: as §1
# MurNAc(b1-4)GlcNAc = molecular target: MurNAc(b1-4)GlcNAc
# Summary of the method: as §1
# Neu5Ac(a2-3)Gal = molecular target: Neu5Ac(a2-3)Gal
# Summary of the method: as §1
binder,measurement,setting,value
B1,glycan array binding signal (z-score),[1],-0.341
same,glycan array binding signal (z-score),[2],-0.626
same,glycan array binding signal (z-score),[3],-0.928
same,glycan array binding signal (z-score),[4],-0.57
same,glycan array binding signal (z-score),[5],-0.341
same,glycan array binding signal (z-score),[6],-0.217
same,glycan array binding signal (z-score),GlcNAc(b1-3)GalNAc,0.029
same,glycan array binding signal (z-score),GlcNAc(b1-3)Man,-0.022
same,glycan array binding signal (z-score),[7],-0.404
same,glycan array binding signal (z-score),[8],0.121
same,glycan array binding signal (z-score),[9],0.435
same,glycan array binding signal (z-score),[10],-0.493
same,glycan array binding signal (z-score),GlcNAc(b1-4)GlcNAc,0.215
same,glycan array binding signal (z-score),[11],-0.409
same,glycan array binding signal (z-score),[12],-0.717
same,glycan array binding signal (z-score),[13],-0.697
same,glycan array binding signal (z-score),[14],-0.528
same,glycan array binding signal (z-score),[15],0.144
same,glycan array binding signal (z-score),GlcNAc(b1-6)GalNAc,0.657
same,glycan array binding signal (z-score),[16],-0.08
same,glycan array binding signal (z-score),Kdn(a2-3)Gal(b1-3)GalNAc,-0.133
same,glycan array binding signal (z-score),Kdn(a2-3)Gal(b1-3)GlcNAc,0.184
same,glycan array binding signal (z-score),Kdn(a2-3)Gal(b1-4)Glc,-0.646
same,glycan array binding signal (z-score),Kdn(a2-3)Gal(b1-4)GlcNAc,-0.162
same,glycan array binding signal (z-score),[17],-0.818
same,glycan array binding signal (z-score),Kdn(a2-6)Gal(b1-4)GlcNAc,1.36
same,glycan array binding signal (z-score),[18],0.728
same,glycan array binding signal (z-score),[19],-0.685
same,glycan array binding signal (z-score),Man(a1-2)Man(a1-3)Man,0.489
same,glycan array binding signal (z-score),[20],-0.113
same,glycan array binding signal (z-score),[21],-0.055
same,glycan array binding signal (z-score),[22],0.274
same,glycan array binding signal (z-score),[23],0.318
same,glycan array binding signal (z-score),[24],-0.364
same,glycan array binding signal (z-score),[25],-0.346
same,glycan array binding signal (z-score),Man(a1-3)[Man(a1-6)]Man,0.256
same,glycan array binding signal (z-score),[26],-0.496
same,glycan array binding signal (z-score),[27],-0.413
same,glycan array binding signal (z-score),[28],0.304
same,glycan array binding signal (z-score),[29],-0.131
same,glycan array binding signal (z-score),[30],1.97
same,glycan array binding signal (z-score),Man(a1-6)Man,0.443
same,glycan array binding signal (z-score),Man(b1-4)GlcNAc,0.146
same,glycan array binding signal (z-score),MurNAc(b1-4)GlcNAc,-0.336
same,glycan array binding signal (z-score),Neu5Ac(a2-3)Gal,-0.347
